Laboratory results published in PubChem BioAssay AID1458 (National Center for Advancing Translational Sciences (NCATS), 2008).
Screen size: about 210,000 compounds; about 5,900 (2.8%) were called active. The shares of active, inactive and inconclusive entries below differ from those in the screen. The call rests on the fitted dose curve; in most records, active means well fitted activation curve with a large enough effect; inconclusive means small, poorly fitted or top-dose-only effect; inactive means no such curve, though single readings can be large or run the other way. A potency beside an inconclusive call is a rough fit, not a confirmed value.

Assay: qHTS Assay for Enhancers of SMN2 Splice Variant Expression; further: nearly all actives have a fitted effect of over 55% in size; on activity change, positive = activation: % of control where 0% means no effect
Details: HEK293 SMN2-luciferase splicing reporter, luminescence, 30-36 h; activity change, positive = activation: at 46.1 µM (top of the series)
Procedure, shortened: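 qHTS luciferase splicing reporter: luminescence rises when SMN2 exon 7 is included in transfected HEK293 cells. Compound exposure lasted 30-36 h at 37C, with 4.5 mM final sodium butyrate as control, followed by a ONE-Glo read.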
Potency means the concentration at half of the fitted maximal effect; tags describe the fitted curve by direction and shape.

SMILES | Potency | activity change, positive = activation
Cc1ccc(C)c2[nH]c(=O)c(C(c3nnnn3C3CCCC3)N3CCOCC3)cc12 (stereo unspecified) | inconclusive: 39.8 µM [activator, partial curve, poor fit] | –
Cc1ccc(N=C2NC(=O)c3cccc([N+](=O)[O-])c32)cc1 | inconclusive: 6.31 µM [activator, partial curve, poor fit] | –
CC(C)c1ccc(S(=O)(=O)Nc2cc3c(cc2NCc2ccccc2)n(C)c(=O)n3C)cc1 | inconclusive: 3.16 µM [activator, full curve] | –
COc1ccccc1C(=O)N1CCC(c2c[nH]c3ccccc23)(c2c[nH]c3ccccc23)CC1 | inconclusive: 5.62 µM [activator, single point] | –
CSc1ccc(NC(=O)Nc2cc(C)ccn2)cc1 | active: 1.58 µM | –
CCCCN(C(=O)CSc1cc(C)c2ccccc2n1)c1c(N)n(Cc2ccccc2)c(=O)[nH]c1=O | – | inactive: 27.8%
N#C/C(=C(\O)c1ccco1)c1ccccn1 | inconclusive: 25.1 µM [activator, single point] | –
COc1ccccc1OCC(=O)Nc1ccc(Cl)cc1 | inconclusive: 7.94 µM [activator, partial curve, poor fit] | –
CC(=O)Nc1ccc(-c2ccc(NC(C)=O)cc2)cc1 | inconclusive: 15.8 µM [activator, partial curve] | –
O=C(CC(=O)c1ccccc1)Nc1cccnc1 | – | inactive: 4.14%
COc1ccc(C(F)(F)F)cc1NC(=O)c1nc2nc(C)cc(C(F)F)n2n1 | inconclusive: 0.0126 µM [activator, partial curve, poor fit] | –
CC(=O)Cc1nsc(NC(=O)c2ccc(Br)o2)n1 | inconclusive: 0.0112 µM [activator, partial curve, poor fit] | –
O=C1C2C3c4ccccc4C(c4ccccc43)C2C(=O)N1c1nc(-c2ccccc2)cs1 (stereo unspecified) | – | inactive: 13.6%
NC(=O)c1nsc(C(=O)N(CC(=O)NCc2ccco2)c2ccccc2F)c1N | inconclusive: 12.6 µM [activator, single point] | –
CCn1c(=O)cc(SCC(=O)N2CCN(c3ccccn3)CC2)c2ccccc21 | inconclusive: 10 µM [activator, partial curve] | –
COc1cccc(C(=O)Nc2ccc(F)cc2F)c1 | active: 12.6 µM | –
CCOC(=O)c1sc(NC(=O)Nc2cccc(Cl)c2)cc1C | inconclusive: 5.62 µM [activator, partial curve] | –
OCc1nc2ccccc2n1CCCOc1ccccc1 | active: 11.2 µM | –
O=C(c1ccc(-c2ccccc2)cc1)N1CCC(C(=O)N2CCCC2)CC1 | inconclusive: 2.82 µM [activator, partial curve, poor fit] | –
Cc1ccccc1-c1nnc(Cc2ccccc2)o1 | active: 11.2 µM | –
COc1ccc2sc(NC(=O)CC(C)C)nc2c1 | inconclusive: 35.5 µM [activator, single point] | –
CC(=O)c1cccc(NC(=S)NC(=O)c2ccc(Br)cc2)c1 | inconclusive: 20 µM [activator, single point] | –
Cc1ccsc1C(=O)N/N=C/c1ccc2c(c1)OCO2 | active: 2.51 µM | –

SMILES | Potency | activity change, positive = activation
Cc1nnc(NCCN2CCOCC2)[nH]c1=O | inconclusive: 11.2 µM [activator, single point] | –
CN1C(=O)C(O)(c2nnc(-c3ccccc3)o2)c2ccccc21 (stereo unspecified) | inconclusive: 17.8 µM [activator, single point] | –
CCCn1c(=O)c(C(=O)N/N=C/c2ccccc2F)c(O)c2ccccc21 | active: 12.6 µM | –
COc1ccc(-c2nnc(SCc3cccnc3)o2)cc1 | inconclusive: 31.6 µM [activator, single point] | –
COCCN(CCOC)c1ncnc2c1cnn2-c1ccc(Cl)cc1 | inconclusive: 10 µM [activator, partial curve] | –
O=C(O)c1c[nH]c2cc(OCc3ccccc3)ccc2c1=O | inconclusive: 0.224 µM [activator, full curve] | –
Cc1cccc(NC(=O)CSc2nnc(-c3ccccc3C)o2)c1 | active: 12.6 µM | –
CCOC(=O)c1ccc(NC(=S)Nc2cccc(C)n2)cc1 | – | inactive: -18.4%
C1=C(CCNc2nnnn2-c2ccccc2)CCCC1 | inconclusive: 5.62 µM [activator, partial curve, poor fit] | –
Cc1ccc(C)c(N2CCN(c3nnnn3-c3ccccc3)CC2)c1 | inconclusive: 39.8 µM [activator, partial curve, poor fit] | –
CC(=O)O[C@@H](C)C#C[Si](C)(C)c1ccccc1 | – | inactive: 12.7%
Cc1csc(NC(=O)c2nc(-c3ccccc3)n(-c3ccccc3)n2)n1 | – | inactive: -6.3%
O=C(O)[C@@H]1CCN(Cc2oc(CO)cc(=O)c2O)C1 | – | inactive: -0.908% [at 9.22 µM]
COc1ccc(OCCOC(=O)c2cccc(-n3cnnn3)c2)cc1 | inconclusive: 12.6 µM [activator, partial curve] | –
O=C1OC(c2ccccc2)=C/C1=C\N1CCOCC1 | inconclusive: 5.01 µM [activator, partial curve, poor fit] | –
CC1(C)CC(=O)c2sc(NS(=O)(=O)Cc3ccccc3)nc2C1 | inconclusive: 35.5 µM [activator, single point] | –
CC1=NN(C(N)=S)C(=O)C1N=Nc1ccc(C)cc1C (stereo unspecified) | active: 14.1 µM | –
Cc1ccccc1Nc1nnc(SCC(=O)Nc2ccccc2[N+](=O)[O-])s1 | – | inactive: -2.76%
CCN(CC)c1ccc(NC(=O)c2cccc(F)c2)c(C)c1 | inconclusive: 14.1 µM [activator, partial curve] | –
CCCCCOC(=O)C1=C(C)N(C)C(=O)NC1c1cc(Br)c(O)c(OC)c1 (stereo unspecified) | inconclusive: 0.004 µM [activator, full curve, poor fit] | –
O=C(Nc1ccc(Cl)cc1)Nc1ccccc1CC[N+](=O)[O-] | inconclusive: 0.0112 µM [activator, full curve, poor fit] | –
CN1CCN(CCCNC(=O)c2cc3c(-c4ccc(Cl)cc4)nn(C)c3s2)CC1 | – | inactive: -28.6%
O=C(Nc1ccccc1)NC1(C(=O)N2CCN(C(=O)c3ccco3)CC2)CCCCC1 | inconclusive: 5.62 µM [activator, single point] | –
